Assay results taken from the supplement of paper PMC12217912.
This is one part of the list. Sequences were assembled here from the parent chain. Inactive controls read about 0.05.

B1: TEV protease; numbered along this chain (parent)
chain: MGESLFKGPRDYNPISSSICHLTNESDGHTTSLYGIGFGPFIITNKHLFRRNNGTLVVQSLHGVFKVKDTTTLQQHLVDGRDMIIIRMPKDFPPFPQKLKFREPQREERICLVTTNFQTKSMSSMVSDTSCTFPSGDGIFWKHWIQTKDGQCGSPLVSTRDGFIVGIHSASNFTNTNNYFTSVPKNFMELLTNQEAQQWVSGWRLNADSVLWGGHKVFMVKPEEPFQPVKEATQL

Variants of: B1
Assay: raw area under fraction-flipped curve 0-4 h after induction (AUC4h, not background-subtracted), DNA-recorder readout of cleavage of the substrate (dimensionless); higher = more cleavage of the substrate by the protease variant
Settings: temperature: 34 °C; time window: 0-4 h after rhamnose induction
Procedure: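 In vivo DNA recorder in E. coli TOP10(DE3) ΔrhaA at 34 °C. Each TEVp single-site mutant (parent TEVp 0) is paired with a single-site variant of the 7-mer TEVs (canonical ENLYFQ|S). The substrate sits between flexible linkers in a Bxb1-sfGFP-TEVs-SsrA fusion, so cleavage stabilises Bxb1 and speeds flipping of a recombination array, read by NGS. The value is the raw area under the fraction-flipped curve over 0-4 h after rhamnose induction (AUC4h), with ≥20 reads per time point. It is not background-subtracted; inactive controls average about 0.047.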
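Note: Bxb1 expression induced with 0.2% (w/v) L-rhamnose at OD600 near 0.5, cultures sampled hourly, flipped fraction per protease–substrate barcode pair counted by paired-end Illumina sequencing.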

| Variant | area with substrate ENLYFQA | area with substrate ENLYFQC | area with substrate ENLYFQH | area with substrate ENLYFQK | area with substrate ENLYFQM | area with substrate ENLYFQN | area with substrate ENLYFQQ | area with substrate ENLYFQR | area with substrate ENLYFQS | area with substrate ENLYFQT | area with substrate ENLYFQW | area with substrate ENLYFQY | area with substrate ENLYFQE | area with substrate ENLYFQF | area with substrate ENLYFQG | area with substrate ENLYFQI | area with substrate ENLYFQL | area with substrate ENLYFQP | area with substrate ENLYFQV | area with substrate ENLYFQD |
| --- | --- | --- | --- | --- | --- | --- | --- | --- | --- | --- | --- | --- | --- | --- | --- | --- | --- | --- | --- | --- |
| V229M | 0.093 | 0.105 | 0.0816 | 0.065 | 0.0842 | 0.0716 | 0.0625 | 0.0444 | 0.1 | 0.0656 | 0.0877 | 0.093 | – | – | – | – | – | – | – | – |
| R204C | 0.0938 | 0.131 | 0.0998 | – | – | 0.102 | – | 0.0634 | 0.119 | 0.0852 | 0.069 | 0.0752 | 0.0643 | 0.0854 | 0.104 | 0.0887 | 0.0729 | 0.0388 | 0.0646 | – |
| T174P | 0.0634 | 0.0899 | 0.087 | 0.0598 | – | 0.0604 | – | 0.0713 | 0.0776 | 0.058 | – | 0.0646 | – | 0.062 | – | – | 0.0576 | 0.086 | 0.0652 | – |
| V165G | 0.0551 | 0.0548 | 0.0495 | 0.0579 | 0.0527 | 0.0504 | 0.0468 | 0.0276 | 0.0526 | 0.0516 | – | 0.057 | – | 0.0745 | 0.0498 | 0.045 | 0.0351 | – | – | 0.0526 |
| P184M | 0.0641 | 0.0538 | – | 0.0596 | 0.0288 | 0.0632 | 0.0377 | 0.0491 | 0.07 | 0.0548 | – | 0.0622 | 0.0713 | – | 0.0659 | 0.0544 | 0.0579 | – | 0.0567 | 0.0574 |
| A207N | 0.055 | 0.0977 | – | – | 0.0732 | 0.0801 | 0.0809 | 0.0636 | 0.102 | 0.055 | – | 0.0644 | – | – | 0.102 | 0.0412 | 0.059 | – | – | – |
| A196E | 0.0921 | 0.114 | 0.088 | – | – | 0.0954 | – | 0.0571 | 0.106 | 0.0566 | 0.0645 | – | 0.0686 | 0.0855 | 0.106 | 0.0607 | 0.0654 | 0.0768 | 0.0541 | 0.0732 |
| V210S | 0.0764 | 0.0976 | 0.0571 | 0.0635 | – | 0.063 | 0.0607 | – | 0.0932 | 0.0542 | 0.0527 | 0.0523 | 0.0557 | – | – | – | 0.0453 | 0.0672 | 0.0883 | 0.0616 |
| V210C | 0.103 | 0.106 | – | 0.063 | 0.0767 | 0.0701 | 0.0606 | 0.0652 | 0.103 | 0.0608 | 0.067 | – | – | – | – | 0.0644 | 0.0584 | 0.0479 | 0.0511 | 0.0617 |
| V210Q | 0.0948 | 0.0972 | 0.0736 | 0.0583 | 0.0651 | 0.063 | 0.0683 | 0.0566 | 0.0948 | 0.0691 | 0.0723 | 0.0469 | – | – | 0.0807 | 0.0423 | 0.0587 | 0.0543 | – | 0.0463 |
| P228H | 0.137 | – | 0.0847 | – | 0.0788 | 0.0518 | – | 0.0683 | 0.0979 | 0.0589 | 0.0673 | 0.071 | – | – | – | 0.0479 | 0.0538 | – | – | 0.0772 |
| P228Q | 0.106 | 0.111 | – | 0.0682 | 0.0905 | 0.0778 | – | 0.042 | 0.101 | 0.0612 | 0.0869 | 0.0738 | 0.0092 | 0.0742 | 0.111 | 0.0547 | 0.0775 | – | 0.0569 | 0.0761 |
| Q198C | 0.0545 | 0.0976 | 0.0753 | 0.0542 | 0.0732 | 0.0585 | – | 0.0634 | 0.0963 | 0.0658 | 0.0569 | – | – | – | 0.0846 | – | 0.0693 | 0.0535 | 0.068 | – |
| Q198R | 0.0954 | 0.0963 | 0.0632 | – | 0.0857 | 0.079 | 0.0814 | 0.0263 | 0.108 | 0.0677 | 0.0568 | 0.0607 | – | 0.078 | 0.117 | – | 0.0617 | – | 0.0672 | – |
| Q198E | 0.148 | 0.124 | 0.1 | 0.0594 | – | 0.0901 | – | 0.0628 | 0.118 | 0.0644 | 0.0722 | 0.103 | 0.0618 | 0.0743 | 0.108 | 0.0605 | 0.0649 | 0.0443 | 0.0579 | – |
| V217D | 0.0632 | 0.0585 | 0.0608 | 0.0618 | 0.0576 | 0.0653 | – | 0.0697 | 0.0586 | – | – | 0.0546 | – | – | 0.0589 | – | 0.0621 | – | – | – |
| N206S | 0.102 | – | – | 0.0644 | 0.0932 | 0.0781 | – | 0.0625 | 0.109 | 0.0619 | – | – | – | – | – | 0.0621 | 0.0654 | – | 0.0561 | 0.0926 |
| E189M | 0.0893 | 0.0891 | 0.0738 | 0.0498 | 0.0708 | 0.0677 | – | 0.0604 | 0.0924 | 0.0904 | 0.062 | 0.105 | – | 0.0594 | 0.095 | 0.0526 | – | – | 0.0565 | – |
| G214Y | 0.0723 | 0.063 | – | – | – | 0.0486 | – | 0.0465 | 0.0737 | – | – | – | – | 0.0871 | 0.0709 | 0.0601 | 0.0583 | – | – | 0.0551 |
| E195M | 0.101 | 0.099 | 0.0573 | – | 0.112 | 0.0679 | – | – | 0.0862 | 0.0613 | – | 0.0775 | – | – | 0.075 | – | 0.0621 | 0.0533 | 0.0391 | – |
| V183N | 0.0544 | – | – | 0.0527 | – | 0.0481 | – | 0.0691 | 0.0861 | – | 0.0479 | 0.0448 | – | – | – | 0.0839 | – | 0.0638 | – | – |
| N193T | 0.106 | 0.0857 | 0.0616 | – | 0.0627 | – | – | 0.0644 | 0.0921 | 0.0654 | 0.0631 | – | – | – | 0.0775 | 0.061 | 0.0671 | – | 0.0927 | – |
| T192F | 0.0965 | – | – | 0.0736 | – | 0.0459 | 0.0491 | – | 0.107 | 0.0626 | – | 0.0508 | – | – | 0.0977 | 0.0764 | 0.0657 | – | 0.0521 | – |
| V220D | 0.127 | 0.134 | 0.0926 | 0.0563 | 0.0838 | 0.0945 | 0.071 | 0.0533 | 0.122 | 0.0673 | 0.0629 | 0.0943 | – | – | 0.101 | 0.0602 | 0.0589 | 0.0556 | 0.0829 | 0.081 |
| V220N | 0.0733 | 0.116 | 0.0747 | 0.0677 | 0.086 | 0.0927 | – | 0.0589 | 0.112 | 0.0725 | 0.0629 | – | – | 0.087 | 0.106 | – | 0.0551 | – | – | – |
